We go through 88 molecules from paper PMC4336329 (PLoS ONE, 2015).

The whole screen tested about 310,000 compounds, of which about 14,000 (4.5%) showed an effect of 50% or more. Effects have a minus sign here. The list shows a part of the results.
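Also: peak tail current of the secondary pulse compared with the same well before compound.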

For this experiment, the target named is human ether-à-go-go-related gene (hERG) potassium channel (human, UniProt Q12809). The experiment can be described thus: primary screen, population patch clamp on CHO cells stably expressing hERG.
human ether-à-go-go-related gene (hERG) potassium channel, sequence (Q12809 whole entry, looked up): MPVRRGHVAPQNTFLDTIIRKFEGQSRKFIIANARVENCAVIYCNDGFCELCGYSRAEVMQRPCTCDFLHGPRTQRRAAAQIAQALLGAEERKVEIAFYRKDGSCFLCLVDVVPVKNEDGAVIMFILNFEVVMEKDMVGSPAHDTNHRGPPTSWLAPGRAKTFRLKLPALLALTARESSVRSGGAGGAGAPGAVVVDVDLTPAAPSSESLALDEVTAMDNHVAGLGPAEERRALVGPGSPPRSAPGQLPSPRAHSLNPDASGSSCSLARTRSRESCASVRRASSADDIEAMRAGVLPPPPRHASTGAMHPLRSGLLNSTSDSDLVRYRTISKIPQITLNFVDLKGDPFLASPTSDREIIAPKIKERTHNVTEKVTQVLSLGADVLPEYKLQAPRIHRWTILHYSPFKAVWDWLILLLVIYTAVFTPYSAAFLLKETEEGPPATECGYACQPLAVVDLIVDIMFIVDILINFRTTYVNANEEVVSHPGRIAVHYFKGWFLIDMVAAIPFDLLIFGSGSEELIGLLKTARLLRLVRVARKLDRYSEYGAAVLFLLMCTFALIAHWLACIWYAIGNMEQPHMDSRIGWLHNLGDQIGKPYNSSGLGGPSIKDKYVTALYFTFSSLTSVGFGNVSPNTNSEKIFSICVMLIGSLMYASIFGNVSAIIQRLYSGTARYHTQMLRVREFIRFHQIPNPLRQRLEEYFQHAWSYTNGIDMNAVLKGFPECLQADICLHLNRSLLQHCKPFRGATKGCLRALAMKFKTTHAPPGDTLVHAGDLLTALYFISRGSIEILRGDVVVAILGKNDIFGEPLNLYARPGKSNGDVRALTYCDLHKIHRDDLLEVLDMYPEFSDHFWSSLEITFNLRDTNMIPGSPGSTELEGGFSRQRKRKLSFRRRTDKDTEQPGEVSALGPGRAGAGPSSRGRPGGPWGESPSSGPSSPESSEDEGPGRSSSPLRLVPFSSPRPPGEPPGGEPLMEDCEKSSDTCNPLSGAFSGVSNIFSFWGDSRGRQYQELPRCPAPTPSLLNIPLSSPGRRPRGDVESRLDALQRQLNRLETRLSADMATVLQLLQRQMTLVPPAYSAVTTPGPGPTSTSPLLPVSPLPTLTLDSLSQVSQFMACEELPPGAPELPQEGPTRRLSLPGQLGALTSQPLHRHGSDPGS
With `O=C(NCc1ccco1)/C(=C\c1ccc(F)cc1)NC(=O)c1ccco1`, the “hERG current change (%, negative = inhibition) at 10uM” value was 4.27%.
Regarding `Cn1cccc1C(C#N)(CC#N)c1cccc(F)c1C#N` (stereo not shown), the “hERG current change (%, negative = inhibition) at 10uM” value is -2.9%.
Then `Cc1cc(C)n(C(=O)CNC(=O)c2ccccc2F)n1`, with 11.2%.
Consider `Cc1ccc(CNC(=O)[C@H](Cc2ccccc2)NC(=O)c2ccco2)cc1`, for which the “hERG current change (%, negative = inhibition) at 10uM” value was -10.1%.
Consider `O=C(NCC(c1ccco1)N1CCOCC1)c1ccc([N+](=O)[O-])cc1` (stereo not shown), for which the “hERG current change (%, negative = inhibition) at 10uM” value is on record as -5.83%.
Then `CCCCc1cc(=O)oc2c(CN3CCN(C)CC3)c(O)ccc12`, with -6.07%; and `COC(=O)C(NC(=O)c1ccccc1C(=O)O)c1ccc2ccccc2c1` (stereo not shown), with 17.9%; and `COC(=O)CCC(=O)NNC(=O)Cc1ccccc1`, with 30.4%.
With `CC(=O)Nc1ccc(NC(=O)C(=O)NCC(c2ccco2)N2CCc3ccccc3C2)cc1` (stereo not shown), the “hERG current change (%, negative = inhibition) at 10uM” value is listed as -14%.
For the molecule `CCOc1ccc(OCc2cccc(C(=O)Nc3ccc(CN4CCCCC4)cc3)c2)cc1`, the “hERG current change (%, negative = inhibition) at 10uM” value is on record as -63.2%.
For `O=C(NCc1ccccc1Cl)C1CCN(S(=O)(=O)N2CCC3(CC2)OCCO3)CC1`, the “hERG current change (%, negative = inhibition) at 10uM” value is on record as -7.14%.
Turning to `Cn1c(=O)c2c(nc(N3CCCCCC3)n2CCSc2nc3ccccc3o2)n(C)c1=O`, the “hERG current change (%, negative = inhibition) at 10uM” value is -19.9%.
Turning to `Cc1cc(S(=O)(=O)Nc2ccc(C(=O)NCC(c3ccco3)N3CCCC3)cc2)ccc1F` (stereo not shown), the “hERG current change (%, negative = inhibition) at 10uM” value is listed as -50.6%.
On to `O=C(/C=C/c1cn(-c2ccccc2)nc1-c1cccnc1)N1CCCCC1`, for which the “hERG current change (%, negative = inhibition) at 10uM” value is on record as -49.7%.
Under `CCOC(=O)CCNCc1ccc(OC)c(OC)c1.Cl` stands 11.1%; under `CN1CCN(c2ccc(NC(=O)c3ccc(Cl)cc3Cl)cc2)CC1`, -23.4%; under `CCN(C(=O)CN1C(=O)S/C(=C\c2cccc(Cl)c2)C1=O)C1CCS(=O)(=O)C1` (stereo not shown), 3.29%.
Under `N#Cc1cc(-c2ccccc2)nc(Oc2ccccc2)n1` stands -1.24%; under `Oc1cccc(Nc2nc(-c3ccccc3)nc3ccccc23)c1`, 9.56%.
Under `CCC(=O)c1ccc(OCC(=O)OCC(=O)NCc2cccs2)cc1` stands -18.1%.
Take `O=C(COC(=O)COc1ccc(Cl)cc1)Nc1ccc(F)c([N+](=O)[O-])c1`: the “hERG current change (%, negative = inhibition) at 10uM” value is given as -2.51%.
Under `Cn1cc(Br)c(C(=O)Nc2sc3c(c2C(N)=O)CCC3)n1` stands 18.4%; under `CCOC(=O)CSc1nnc(CNC(=O)c2ccc(S(=O)(=O)N3CCOCC3)cc2)n1C`, 10.7%; under `CCOc1ccccc1N1CCN(C(=O)Nc2ccc(Cl)c(Cl)c2)CC1`, 3.99%.
Then `OCc1nnc2c3ccccc3c(-c3ccccc3)nn12`, with -4.77%; and `CCc1ccccc1NNC(=O)c1cc(C)on1`, with 10.6%; and `O=C(c1ccc(Cl)cc1)N(Cc1ccc(Br)cc1)N1C(=O)CCC1=O`, with -43.4%.
Under `CCOCCCNC(=O)/C(C#N)=C/c1ccc(-c2ccc(S(=O)(=O)N3CCOCC3)cc2)o1` stands -19%.
Turning to `O=C(Cc1ccccc1Cl)N1CCOCC1`, the “hERG current change (%, negative = inhibition) at 10uM” value amounted to 10%.
Under `CCOC(=O)N1CCC(NC(=O)c2cnn3c(C(F)(F)F)cc(-c4cccc(OC)c4)nc23)CC1` stands -42.2%; under `C=CCNc1nc(C)nc(OC)n1`, 13.8%.
Then `Cc1cccc(N2CC(C(=O)Nc3nnc(SCc4ccccn4)s3)CC2=O)c1` (stereo not shown), with -12.8%; and `N=c1c(C(=O)NCC2CCCO2)cc2c(=O)n3ccccc3nc2n1Cc1ccc(F)cc1` (stereo not shown), with -80%; and `O=C(CSc1nc2ccccc2s1)N1c2ccccc2Sc2ccc(Cl)cc21`, with 9.72%.
Under `CC(=O)N1CCc2cc(S(=O)(=O)NCC(=O)NCc3ccc(F)cc3)ccc21` stands 14.9%; under `CCN(CC)S(=O)(=O)c1ccc(NC(=O)CC(NC(C)=O)c2ccccc2)cc1` (stereo not shown), 0.997%.
As to `CCN(CC)c1ccc(NC(=O)c2cncc(Br)c2)cc1`, the “hERG current change (%, negative = inhibition) at 10uM” value is reported as -14%.
For the molecule `Cl.OC(CN1CCOCC1)c1csc2ccccc12` (stereo not shown), the “hERG current change (%, negative = inhibition) at 10uM” value turned out to be 9.76%.
Consider `c1ccc(Cn2ccnc2-c2ccco2)cc1`, for which the “hERG current change (%, negative = inhibition) at 10uM” value is -4.16%.
On to `Cc1cc(NC(=O)NN2CCOCC2)nn1-c1c(Cl)cc(Cl)cc1Cl`, for which the “hERG current change (%, negative = inhibition) at 10uM” value is given as 4.9%.
In the case of `O=C(N/N=C\c1cc([N+](=O)[O-])ccc1N1CCOCC1)c1ccccn1`, the “hERG current change (%, negative = inhibition) at 10uM” value is -1.46%.
For `c1cn2cc(-c3ccc4c(c3)OCO4)nc2s1`, the “hERG current change (%, negative = inhibition) at 10uM” value is 8.01%.
Then `Cc1ccc(N(C(=O)Cn2nnc(-c3ccc(C)o3)n2)C(C(=O)NC2CCCC2)c2ccncc2)cc1` (stereo not shown), with -22.3%; and `O=C(c1ccc(Cl)c([N+](=O)[O-])c1)N(Cc1ccco1)C1CCS(=O)(=O)C1` (stereo not shown), with -2.87%; and `COCCNC(=O)c1ccccc1NS(=O)(=O)c1ccc(C)c([N+](=O)[O-])c1`, with 17.6%.
On to `CS(=O)(=O)N1CCN=C1SCc1ccc(Br)cc1`, for which the “hERG current change (%, negative = inhibition) at 10uM” value was 6.08%.
Then `COc1ccccc1N(CC(=O)Nc1ccc(C(F)(F)F)cc1)S(C)(=O)=O`, with -7.17%; and `COc1ccc(-c2c(NCCc3ccccc3)c(=O)c2=O)cc1`, with 21.5%; and `COc1ccc(CNC(=O)CCN2C(=O)c3ccccc3C2=O)cc1`, with -10.8%.
In the case of `O=C(CNS(=O)(=O)c1cccc2nonc12)NCc1ccc(F)cc1`, the “hERG current change (%, negative = inhibition) at 10uM” value is reported as -4.96%.
`CC(C)n1ncc2c(C(=O)N3CCN(c4ccc(F)cc4)CC3)cc(-c3ccccc3)nc21`: the “hERG current change (%, negative = inhibition) at 10uM” value was -13.5%.
For the molecule `COC(=O)C1=C(c2ccc(-c3ccccc3)c(F)c2)C[C@@H]2CC[C@H]1N2C(=O)N1CCOCC1`, the “hERG current change (%, negative = inhibition) at 10uM” value was -19.3%.
Then `COc1ccc(NC(=O)c2oc3ccccc3c2NC(=O)C2CCCO2)cc1OC` (stereo not shown), with -17.8%; and `Cc1onc(-c2ccccc2)c1C(=O)Nc1sc2c(c1C(N)=O)CCC2`, with 6.44%; and `O=C(Nc1nccs1)c1cccc(S(=O)(=O)N2CCCCC2)c1`, with -26.2%.
Regarding `COc1ccc(NC(=O)n2nc(OC(=O)c3cccs3)cc2N)cc1`, the “hERG current change (%, negative = inhibition) at 10uM” value is recorded as 12.3%.
Then `COc1cc2nc(Nc3ccc(C)c(Cl)c3)nc(N)c2cc1OC.Cl`, with 4.1%; and `Cc1sc2c(c1C)C(c1ccc(C(C)(C)C)cc1)=NCC(=O)N2CC(=O)Nc1nccs1`, with -17.9%; and `O=C(c1ccc(Cl)c(S(=O)(=O)N2CCCC2)c1)N1CCN(c2ncccn2)CC1`, with -4.2%.
`Cc1[nH]n(-c2ccccc2)c(=O)c1N=Nc1nccs1`: the “hERG current change (%, negative = inhibition) at 10uM” value stood at 11.2%.
Under `Clc1nn2cnnc2c2ccccc12` stands 8.76%.
For the molecule `Cc1c2c(nc3ccccc13)CCC(C(C)(C)C)C2.Cl` (stereo not shown), the “hERG current change (%, negative = inhibition) at 10uM” value is reported as -6.8%.
Under `CC(C)C(=O)Nc1nnc(S(=O)(=O)N2CCc3ccccc32)s1` stands -3.87%; under `N#C/C=C(/N)c1ccc(Br)cc1`, 7.26%.
Under `CNC(=S)NNc1ccccc1[N+](=O)[O-]` stands 13.7%; under `COc1ccccc1NC(=O)CN1CCN(CC(=O)Nc2ccc(S(N)(=O)=O)cc2)CC1`, -27.8%; under `COc1ccc(Cn2cc3c(-c4ccc(F)cc4)nnc-3c3cc(OC)c(OC)cc32)cc1`, -88.2%.
Then `COc1cccc(NC(=O)CCC2CCN(Cc3nccs3)CC2)c1`, with -2.63%.
As for `COc1ccc2cc(C(=O)Nc3ccccc3)sc(=O)c2c1OC`, the “hERG current change (%, negative = inhibition) at 10uM” value was 29.7%.
Under `CCN1C/C(=C/c2cccs2)c2nc3ccccc3c(C(=O)O)c2C1` stands 1.33%; under `CC1CCC(NC(=O)Cn2c(=O)oc3ccccc32)CC1` (stereo not shown), 11.8%; under `C#CCOC(=O)CCCC(=O)Nc1ccccc1OC`, 9.09%.
Under `COC(=O)Cn1cc(C(=O)C2CC2)c2ccccc21` stands 2.2%.
With `C/C(CC(=O)Nc1ccc2ccccc2c1)=N\NC(=O)c1cnccn1`, the “hERG current change (%, negative = inhibition) at 10uM” value was -4.24%.
Then `CCN(C(=O)CSc1nccn1C)c1cccc2ccccc12`, with -7.15%.
For the molecule `COC(=O)C1=C(C(=O)OC)[C@@H]2N(C)c3ccc(OC)cc3[C@@]23C[C@@H](C(=O)OC)N(C(=O)c2cc(C)oc2C)C3=N1`, the “hERG current change (%, negative = inhibition) at 10uM” value was -43.5%.
Under `COc1ccc(C(=O)c2c(C)oc3ccc(O)cc23)cc1` stands 4.6%.
Take `Cc1ccc(NC(=O)CCNS(=O)(=O)c2ccc3c(c2)oc(=O)n3C)cc1C`: the “hERG current change (%, negative = inhibition) at 10uM” value is reported as -8.38%.
With `Cn1c(SCCC#N)nnc1-c1ccccc1F`, the “hERG current change (%, negative = inhibition) at 10uM” value is recorded as 7.17%.
Under `Cc1cc(-c2onc3ccc(Cl)cc23)ccc1O` stands 17.2%.
Under `CN(CC(O)COCc1ccc2c(c1)OCO2)C1CCCCC1.Cl` (stereo not shown) stands -20.6%; under `CCc1ccc(-c2cc3c(=O)n(CC(=O)NCCCN4CCC(Cc5ccccc5)CC4)nc(C)n3n2)cc1`, 2.48%.
On to `COc1ccc(C(C#N)N2N=C(C)CC2c2ccccc2)cc1` (stereo not shown), for which the “hERG current change (%, negative = inhibition) at 10uM” value worked out at 9.47%.
Take `c1ccc(CSC2=NNC(c3ccccn3)S2)cc1` (stereo not shown): the “hERG current change (%, negative = inhibition) at 10uM” value is reported as 14.8%.
Then `CCOc1ccc(CCNC(=O)CN2C(=O)NC3(CCc4ccccc43)C2=O)cc1OCC` (stereo not shown), with -9.62%; and `O=C(C1CCCO1)N1CCN(S(=O)(=O)c2ccc(Br)cc2)CC1` (stereo not shown), with -6.15%.
As for `CCN(CC)S(=O)(=O)c1ccc(N2CCOCC2)c(NC(=O)CC23CC4CC(CC(Br)(C4)C2)C3)c1`, the “hERG current change (%, negative = inhibition) at 10uM” value is -6.98%.
Then `Cc1cc(C)nc(N/N=C2/CCCC/C2=C\c2ccccc2)n1`, with 36.5%.
